Reference: PubChem BioAssay AID1656 (Sanford-Burnham Center for Chemical Genomics, 2009)
The other results are listed elsewhere or left out. These are further read-outs of the screen, such as a control signal, another cell line or another target. No call is given for them. The list favours compounds with an active or inconclusive main result.

Assay: oleate-induced lipid droplet accumulation in AML12 cells – imaging, high-throughput imaging, BODIPY stain, primary screen (AID 1656);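 further: cells counted across two imaged fields per well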
Conditions: AML12 mouse hepatocytes, oleate lipid droplets, measured here: cell count, cytotoxicity flag, at 6.5 µM
Outline: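 material = mouse AML12 hepatocyte cell line, fixed after treatment | also added = 100 µM oleic acid challenge | doses = compound at 6.5 µM only | schedule = overnight exposure | technique = Image-based BODIPY and DAPI two-channel analysis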

Structure (SMILES) | cell count
CCOc1ccc(CCNC(=O)COC(=O)c2ccc(OC)c(OC)c2OC)cc1OCC | 737 cells
CC1CCCN(C2=C(NS(=O)(=O)c3ccc(Br)cc3)C(=O)c3ccccc3C2=O)C1 (stereo not drawn) | 680 cells
N=c1c(C(=O)NCCN2CCOCC2)cc2c(=O)n3ccccc3nc2n1CCCN1CCOCC1 | 717 cells
COc1cc2c3nnc(-c4ccc(F)cc4)c-3cn(Cc3cccc(C)c3)c2cc1OC | 678 cells
COc1ccccc1NS(=O)(=O)c1cc(NC(=O)c2cc3ccccc3oc2=O)ccc1C | 680 cells
Cc1ccc(N(C(=O)CCl)C(C(=O)NC2CCCCC2)c2cccnc2)cc1C (stereo not drawn) | 107 cells
COC(=O)c1c(N2C(=O)[C@H]3[C@@H](C2=O)[C@]2(C(=O)Nc4c(C)cc(C)cc42)N2CCC[C@@H]32)sc(C)c1C | 693 cells
O=C(NCCc1nc2ccccc2[nH]1)c1ccc(Br)o1 | 798 cells
CCCCn1c(O)c(/C=C/C=C/C=Nc2ccccc2)sc1=S | 691 cells
COC(=O)c1cc(C(=O)N2CCN(c3cccc(Cl)c3)CC2)cc([N+](=O)[O-])c1 | 280 cells
CCOC(=O)C(=NC(C)CC)NNc1ccc(Br)cc1 (stereo not drawn) | 283 cells
C/C(=C\c1cccc(Cl)c1Cl)C(=O)c1c(C)cc(C)[nH]c1=O | 821 cells
CCC(=O)N1N=C(c2cccc(NS(C)(=O)=O)c2)CC1c1cccs1 (stereo not drawn) | 273 cells
CN1C(=O)[C@H]2[C@@H](C3CC3)N3C(=O)CN(Cc4ccccn4)C(=O)[C@@]3(Cc3ccccc3)[C@H]2C1=O | 810 cells
CCCCN(C(=O)CCC(=O)Nc1cc(C)on1)C(C(=O)NC1CCCC1)c1ccc(OCC)cc1 (stereo not drawn) | 797 cells
O=C(CCl)N=c1sccn1Cc1ccccc1Cl | 64 cells
CC(C)c1ccc(C2C3=C(COC3=O)Nc3cc4c(cc32)OCO4)cc1 (stereo not drawn) | 227 cells
CC(C)Oc1ccc(C(=O)OC(C)C(=O)NC2CCCCC2C)cc1 (stereo not drawn) | 718 cells
Cc1cc2cc(CCNC(=O)c3cccc([N+](=O)[O-])c3)c(=O)[nH]c2cc1C | 280 cells
O=c1cc(-c2ccccc2)[nH]c2ccc(F)cc12 | 177 cells
CC(C)(C)OC(=O)N1CCN(c2ccc(NC(=O)Cn3nnc(-c4ccccc4)n3)cc2)CC1 | 635 cells
O=C(CNCCC1=CCCCC1)Nc1ccccc1N1CCCCC1 | 474 cells
Cc1ccc(C(=O)Sc2cccccc2=O)cc1 | 293 cells
CCOc1ccc(CCNC(=O)CCS(=O)(=O)c2ccc(C)cc2)cc1OCC | 401 cells
O=c1[nH]c(CSc2nnc(-c3ccccc3)n2-c2ccccc2)nc2ccccc12 | 728 cells

Structure (SMILES) | cell count
CCOc1ccccc1Nc1nnc(SCC(=O)Nc2nc(-c3ccc(OC)cc3)cs2)s1 | 625 cells
CC(C)COc1cccc(-c2cc(C(=O)Nc3ccon3)c3ccccc3n2)c1 | 796 cells
CC1CN(c2ccc(C(F)(F)F)cc2[N+](=O)[O-])CCN1S(C)(=O)=O (stereo not drawn) | 265 cells
COc1nc(C)nc2c1ccc1ccccc12 | 744 cells
COc1ccc(C(C(=O)NC(C)(C)C)N(Cc2ccccc2)C(=O)CCC(=O)Nc2cc(C)on2)cc1 (stereo not drawn) | 706 cells
Cc1cccc(Oc2ccc(Cl)cc2N)c1 | 720 cells
CCOc1ccc(C(=O)Nc2ccc(NC(=S)NC(=O)CC)cc2)cc1Cl | 692 cells
O=C(NCc1ccco1)c1ccc(Cn2c(=O)c3ccccc3n(Cc3ccc(Cl)cc3)c2=O)cc1 | 805 cells
COc1ccc(CNC(=O)CCCCCn2c(SCC#N)nc3cc4c(cc3c2=O)OCO4)cc1 | 671 cells
COc1ccccc1NC(=O)c1cnc(Nc2ccccc2OC)c2ccccc12 | 253 cells
CCOc1ccc(CCNC(=O)CCOc2cc(C)ccc2C)cc1OCC | 770 cells
COc1ccccc1NC(=S)N(Cc1ccco1)Cc1cc2ccc(C)c(C)c2[nH]c1=O | 148 cells
O=C1c2ccccc2C2=Nc3ccccc3SC(c3cccc(F)c3)C12 (stereo not drawn) | 650 cells
CC(=O)c1c(C)n([O-])c2cc(F)c(F)cc2[n+]1=O | 132 cells
COc1ccc(C(C(=O)NC(C)(C)C)N(Cc2cccs2)C(=O)CCC(=O)Nc2cc(C)on2)cc1 (stereo not drawn) | 767 cells
Clc1cccc(Nc2nc(-c3ccncc3)cs2)c1 | 319 cells
CCOc1ccccc1N=Nc1c(C)[nH]n(-c2ccccc2)c1=O | 866 cells
Cc1cc2c(cc1S(=O)(=O)Nc1c(C)cccc1C)n(C)c(=O)c(=O)n2C | 791 cells
COc1ccc2c(c1)c(CC(=O)Nc1ccc(C(C)=O)cc1)c(C)n2C(=O)c1ccc(Cl)cc1 | 691 cells
COc1ccccc1C1(O)CCN(CC(=O)Nc2nc(-c3ccccc3)cs2)CC1 | 705 cells
COc1ccc(-n2c(SCc3ccc([N+](=O)[O-])cc3)nnc2-c2ccccc2)cc1 | 254 cells
COc1ccc(C(C(=O)NC2CCCCC2)N(C(=O)CCl)c2cccc(Cl)c2)cc1 (stereo not drawn) | 126 cells
Nc1nc(-c2ccccc2)c(N=Nc2cccc3ccccc23)s1 | 346 cells
CCCCc1ccc(NC(=O)CSc2nc3ncccc3[nH]2)cc1 | 759 cells
CCOC(=O)N1CCN(C(=O)CSCC(=O)Nc2nc(-c3ccc(-c4ccccc4)cc3)cs2)CC1 | 640 cells

Structure (SMILES) | cell count
O=C(c1ccco1)N1CCN(C(=O)N2c3ccccc3Sc3ccccc32)CC1 | 292 cells
CCCCOc1ccc(C(=O)Nc2cc(C)c(OCC(=O)N3CCOCC3)c(C)c2)cc1 | 728 cells
CCOc1ccc(CCNC(=O)COC(=O)c2cc(OC)c(OC)c(OC)c2)cc1OCC | 689 cells
Cc1ccsc1/C=N/NC(=O)c1cc(-c2ccncc2)nc2ccccc12 | 74 cells
CCn1c(=O)c2cc(C(=O)NCCC(C)C)sc2c2ccccc21 | 815 cells
CCOC(=O)c1ccc(S(=O)(=O)Nc2ccc(N3CCOCC3)cc2)cc1 | 785 cells
COc1ccc(NC(=S)NC(=O)c2ccccc2Cl)cc1 | 690 cells
COc1ccc(N=C2C(=Nc3ccc(OC)cc3)N(c3ccc(OC)cc3)C(=S)N2C)cc1 | 792 cells
CCOC(=O)c1c(C)[nH]c(N=Nc2ccccc2C)c1C | 719 cells
COC(=O)/C(=C/c1ccc2c(c1)c1ccccc1n2C)NC(=O)c1ccccc1 | 713 cells
Cc1nnc(SCC(=O)Nc2cc(-c3cc(C)c(C)cc3C)nn2-c2ccccc2)s1 | 727 cells
CC(C)c1ccc(/C=C(\c2nc3ccccc3[nH]2)S(=O)(=O)c2ccccc2)cc1 | 448 cells
Cc1nn(-c2ccccc2)c(C)c1/C=N/NC(=O)c1cc(-c2cccs2)[nH]n1 | 243 cells
COc1ccc(CCNC(=O)C(=O)NCC2OCCN2S(=O)(=O)c2ccc(Br)cc2)cc1OC (stereo not drawn) | 284 cells
COc1c([N+](=O)[O-])cc(C(=O)NNC(=O)c2ccc(C)cc2)cc1[N+](=O)[O-] | 761 cells
CCc1ccc(OCc2ccc(C(=O)O)o2)cc1 | 822 cells
Cc1ccc(-n2nc3c(=O)n(C(C)C(=O)NCCC4=CCCCC4)nc(C)c3c2C)cc1 (stereo not drawn) | 729 cells
COc1ccc(C(=O)CSc2nnc(CC(=O)Nc3ccccc3OC)n2C)cc1 | 755 cells
CCOC(=O)CSC1=C(C#N)C(c2ccc(C)o2)CC(=O)N1 (stereo not drawn) | 128 cells
COc1cc2c(cc1NC(=O)COC(=O)/C=C/c1ccccc1)oc1ccccc12 | 209 cells
Cc1ccc(C(=O)c2cc([N+](=O)[O-])ccc2N2CCCCC2)cc1 | 143 cells
CCOc1ccc(CCNC(=O)CSc2cc(=O)n(C)c3cc(Cl)ccc23)cc1OCC | 695 cells
CCCOC(=O)c1ccc(NC(=O)/C=C/c2cccs2)cc1 | 734 cells
O=C(Nc1ccc(Cl)cc1C(=O)NCc1cccnc1)c1ccc(Cl)cc1Cl | 584 cells
COc1ccccc1/C=C1/SC(=O)N(CCC(=O)Nc2ccc(S(=O)(=O)Nc3nccs3)cc2)C1=O | 175 cells

Structure (SMILES) | cell count
O=C(Cn1nc(-c2cccc(Cl)c2)ccc1=O)Nc1ccc(C(=O)NC2CC2)cc1 | 688 cells
CC(C)Oc1ccc(C(=O)NC(=S)Nc2ccc(CN3CCOCC3)cc2)cc1 | 298 cells
COc1ccc(-c2coc3cc4oc(=O)c5ccccc5c4cc23)cc1F | 227 cells
Cc1cc(N2CCOCC2)n2nc(C)c(-c3ccc(Cl)cc3)c2n1 | 810 cells
COc1ccccc1N(CC(=O)N1CCCC1)S(=O)(=O)c1ccc(C)cc1 | 240 cells
CSc1c(CC(=O)Nc2ccccc2C(F)(F)F)n(Cc2ccccc2)c2ccccc12 | 582 cells
CCOC(=O)C1=C(C)N=c2s/c(=C3\C(=O)Nc4ccccc43)c(=O)n2C1c1ccc2c(c1)OCO2 (stereo not drawn) | 634 cells
Cc1ccc(C(=O)Nc2ncc(Cc3ccc(SC(F)F)cc3)s2)cc1 | 219 cells
CC1CCN(C2=C(NS(=O)(=O)c3ccc(Cl)cc3)C(=O)c3ccccc3C2=O)CC1 | 557 cells
CCOC(=O)/C(C(=O)Nc1ccccc1Cl)=C1/NC(C)(C)Cc2ccccc21 | 682 cells
Cc1ccccc1OCc1nnc(SCC(=O)Nc2ccc3c(c2)oc2ccccc23)n1C | 612 cells
Cc1cc(=O)oc2cc(OCC(=O)NC3CCN(Cc4ccccc4)CC3)c(Cl)cc12 | 709 cells
CCN(CCn1cccn1)C(=O)c1cc(COc2ccc(F)cc2Cl)on1 | 655 cells
O=C/C=C/c1c(-c2ccccc2)cc2oc3ccccc3cc1-2 | 661 cells
CCCCc1ccc(N=N/C(C(=O)Nc2cc(OC)c(NC(C)=O)cc2OC)=C(/C)O)cc1 | 513 cells
COc1ccc(C)cc1NC(=O)C/C(C)=N/NC(=O)Cc1cccc2ccccc12 | 836 cells
COc1nc(Nc2nc3ccccc3c(=O)[nH]2)nc2ccc(C)cc12 | 136 cells
Nc1nc(-c2ccc(Cl)cc2)c(N=Nc2ccc(S(=O)(=O)N3CCOCC3)cc2)s1 | 623 cells
Cc1cccc(/C=N/Nc2cc(N3CCOCC3)nc(N3CCOCC3)n2)c1 | 601 cells
O=C(Nc1cccc(Cn2cccn2)c1)c1cc2c(s1)CCCC2 | 808 cells
COc1cccc2c1C(=O)c1c(O)c3c(c(O)c1C2=O)C[C@@](O)(C(=O)CO)C[C@@H]3O[C@H]1C[C@H](N)[C@H](O)[C@H](C)O1 | 218 cells
CCOC(=O)c1ccc(NC(=O)CCOc2ccc(C)cc2)cc1 | 808 cells
O=C1C(NS(=O)(=O)c2cccs2)=C(N2CCN(c3cccc(C(F)(F)F)c3)CC2)C(=O)c2ccccc21 | 753 cells
